Results: PubChem BioAssay AID624296 (National Center for Advancing Translational Sciences (NCATS), 2012)
The whole screen tested about 350,000 compounds, of which about 9,900 (2.8%) were called active. Inconclusive results, whose numbers are uncertain, are shown with a selection of clear calls. Calls follow the shape of the dose curve; as a rule, active = well fitted activation curve with a large enough effect; inconclusive = small, poorly fitted or top-dose-only effect; inactive = no such curve, though single readings can be large or run the other way. Potencies of inconclusive entries are left out as doubtful fits.

Assay: A quantitative high throughput screen for small molecules that induce DNA re-replication in MCF 10a normal breast cells. Also: nearly all actives have a fitted effect of over 50% in size.
Conditions: MCF 10A DNA re-replication, Hoechst nuclear intensity, 48 h; series mostly up to 46.1 µM
Potency is read from the fitted curve at half-maximal effect; tags tell the direction and shape of the fitted curve.

| Structure (SMILES) | Potency |
| --- | --- |
| C[C@]12CCC3C(CC[C@H]4C[C@@H](O)CC[C@]34C)C1C[C@@H](O)[C@H]2O (some centres undefined) | inconclusive [activator, partial curve] |
| CN1CCN(c2ccccc2N)CC1 | inconclusive [activator, partial curve, poor fit] |
| CCOC(=O)N1CCN(C(=O)C(CC(C)C)NS(=O)(=O)c2ccc3c(c2)oc(=O)n3C)CC1 (centres undefined) | inconclusive [activator, partial curve, poor fit] |
| CC1CCC(C(C)C)C(OC(=O)c2ccccc2N)C1 (centres undefined) | active: 18.8 µM |
| CC(C)(C)C(O)C(Oc1ccc(Cl)cc1)n1cncn1 (centres undefined) | inactive |
| CC1(c2ccccc2)NCCN2C(=O)CSC21 (centres undefined) | inactive |
| CCOC(=O)C1CCN(Cc2ccc(Cl)nc2)CC1 | inactive |
| COC(=O)C1=C(c2ccccc2)C[C@@H]2CC[C@H]1N2C(=O)NC(C)C | inactive |
| O=C1Nc2ccccc2/C1=C/c1nc2ccccc2c(=O)n1-c1ccc(O)cc1 | inactive |
| COc1cc2c(cc1OC)C(C(=O)N1CCC3(CC1)OCCO3)C(c1ccccc1F)N(C)C2=O (centres undefined) | inconclusive [activator, partial curve, poor fit] |
| C1=C(c2c[nH]c3ccccc23)CCN(Cc2ccccc2)C1 | active: 16.4 µM |
| O=C(CCN1CC2CCC(CC2)C1)c1cccs1 | active: 10.3 µM |
| CN[C@H]1C[C@H]2O[C@@](C)([C@H]1OC)n1c3ccccc3c3c4c(c5c6ccccc6n2c5c31)C(=O)NC4 | inconclusive [activator, full curve, poor fit] |
| Cc1cccc(N2C(=O)NC(=O)/C(=C\C=C\c3ccco3)C2=O)c1 | active: 14.6 µM |
| CCC(C)C1O[C@]2(C=CC1C)CC1CC(C/C=C(\C)[C@H](OC3CC(OC)C(O[C@H]4CC(OC)[C@@H](O)C(C)O4)C(C)O3)[C@@H](C)/C=C/C=C3\COC4C(O)C(C)=C[C@H](C(=O)O1)[C@@]34O)O2 (some centres undefined) | inconclusive [activator, single point] |
| CC(C)CCNC(=O)c1c(N)n(Cc2ccc3c(c2)OCO3)c2nc3ccccc3nc12 | inconclusive [activator, partial curve, poor fit] |
| CCOc1cc(CNCCc2c[nH]c3ccccc23)cc(Cl)c1OC | inconclusive [activator, partial curve] |
| O=C(NN=Cc1ccc(N(CCCl)CCCl)cc1)c1cc(=O)[nH]c(=O)[nH]1 | inconclusive [activator, partial curve, poor fit] |
| CCOC(=O)C1(c2ccccc2)CCN(CCC(=O)Nc2cccc(Br)c2)CC1 | inconclusive [activator, partial curve, poor fit] |
| Clc1ccc(CS[C@@H](Cn2ccnc2)c2ccc(Cl)cc2Cl)cc1 | inconclusive [activator, single point] |
| O=C(Oc1c(Cl)cc(Cl)c2ccccc12)N1CCCCC1 | inconclusive [activator, single point] |
| Clc1ccc(OCC#CCN2CCOCC2)cc1 | inactive |

| Structure (SMILES) | Potency |
| --- | --- |
| c1ccc2c(CN3CCCCC3)c[nH]c2c1 | inactive |
| CCOC(=O)c1cc(C)sc1/N=C/C1C(=O)NC(=S)NC1=O | inconclusive [activator, partial curve, poor fit] |
| O=C(c1ccc2c(c1)N(Cc1ccc(F)cc1)CCS2)N1CCC2(CC1)OCCO2 | inconclusive [activator, single point] |
| COC(=O)C1=Nc2ccccc2/C1=C\c1c(O)n(-c2ccc(Br)cc2)c(=O)[nH]c1=O | inconclusive [activator, single point] |
| N=C1c2ccccc2CN1NC(=O)c1ccc(Br)cc1 | inconclusive [activator, partial curve, poor fit] |
| O=C(CCn1c(=O)oc2ccccc21)N1CCN(c2ccccc2Cl)CC1 | active: 9.2 µM |
| O=C1c2ccccc2-c2cccc3cccc1c23 | inactive |
| Cc1cccc(-n2c(/C=C/c3ccccn3)nc3ccccc3c2=O)c1 | inconclusive [activator, single point] |
| O=C(CNC(=O)OCc1ccccc1)Nc1ccc(Br)cc1C(=O)c1ccccc1 | inconclusive [activator, partial curve, poor fit] |
| C[C@H]1CC[C@@]2(C)[C@@H](CC[C@@H]3[C@@H]2CC[C@]2(C)[C@@H](O)CC[C@@H]32)C1 | inconclusive [activator, partial curve, poor fit] |
| O=C(O)c1ccccc1Nc1cccc(C(F)(F)F)c1 | inconclusive [activator, partial curve, poor fit] |
| CCOC(=O)N1CCC(NC(=O)CCc2nc(C3=CCN(C)CC3)no2)CC1 | inactive |
| CC(C)(C)NC(=O)N1c2ccccc2Sc2ccccc21 | inconclusive [activator, single point] |
| O=c1[nH]c(O)c(C=Nc2ccc(Cl)c(C(F)(F)F)c2)c(=O)[nH]1 | inconclusive [activator, single point] |
| Cc1ccc2c(c1)CCCN2N=O | inconclusive [activator, single point] |
| CCOC(=O)C1(c2ccccc2)CCN(CC(=O)Nc2cccc3ccccc23)CC1 | inconclusive [activator, single point] |
| Nc1ccccc1N=Cc1c(O)n(CCC2=CCCCC2)c(=O)[nH]c1=O | inconclusive [activator, partial curve, poor fit] |
| CCCCCn1c(=O)c(C(=O)Nc2cccc(C)n2)c(O)c2ccccc21 | inactive |
| COc1ccc2cc1Oc1ccc(cc1)C[C@H]1c3cc(c(OC)cc3CCN1C)Oc1c(O)c(OC)cc3c1[C@H](C2)N(C)CC3 | active: 20.6 µM |
| CCN(CC(=O)Nc1ccc(NC(C)=O)cc1)C(=O)CSC(c1ccccc1)c1ccccc1 | inactive |
| CN1CCc2nc3sc(C#N)c(N)c3c(-c3cccs3)c2C1 | inactive |
| CC(O)C1C=CC=CC(=O)OC2CC3OC4C5OC5(C)C(O)CC4(COC(=O)C(O)C(C)CCO1)C2(C)C31CO1 (centres undefined) | inconclusive [activator, full curve, poor fit] |

| Structure (SMILES) | Potency |
| --- | --- |
| CCCCCc1nc2c(c(=O)c3ccccc3n2C)c(=O)n1C1CCCCCC1 | inconclusive [activator, single point] |
| CCCCOP(=O)(OCCCC)C(Nc1ccc(C(=O)OCC)cc1)c1ccncc1 (centres undefined) | inconclusive [activator, single point] |
| O=C(Nc1nc(-c2ccccc2)c(-c2ccccc2)s1)c1ccc(S(=O)(=O)N(CCCl)CCCl)cc1 | inconclusive [activator, full curve, poor fit] |
| Cc1ccc(C(=O)NC(O)C(Cl)(Cl)Cl)cc1 (centres undefined) | inactive |
| CN1CCN(c2ccccc2NC(=O)c2ccc(-c3ccc(Cl)c(Cl)c3)o2)CC1 | inconclusive [activator, single point] |
| NP(=O)(OCCCc1ccccc1)Oc1ccccc1Cl (centres undefined) | inconclusive [activator, full curve, poor fit] |
| O=[N+]([O-])c1ccc(-c2ccccc2)c([As](=O)(O)O)c1 | active: 23.1 µM |
| CCOP(=O)(OCC)/C(=N/OC(=O)c1ccccc1C)C(N)=O | inconclusive [activator, partial curve, poor fit] |
| CC1CC2(C)C(CCC3C2CCC2(C)C(OP(=O)(N4CC4)N4CC4)CCC32)CC1=O (centres undefined) | active: 13 µM |
| CC(=O)O[C@H]1CC[C@@]2(C)C(=CC[C@@H]3[C@H]2CC[C@]2(C)C(=O)CC[C@H]32)C1 | inconclusive [activator, full curve, poor fit] |
| CCC(C)N1CCN(C(=O)COc2ccc3ccccc3c2)CC1 (centres undefined) | inconclusive [activator, partial curve, poor fit] |
| C[C@]12CCC3C(CC[C@H]4C[C@H](OC(=O)c5cccnc5)CC[C@]34C)C1CCC2=O (some centres undefined) | inconclusive [activator, single point] |
| O=C(c1ccco1)c1cn(Cc2ccc(Cl)cc2)c2ccccc12 | inconclusive [activator, single point] |
| CC[C@]1(O)CC[C@H]2[C@@H]3CCC4=CCCC[C@@H]4[C@H]3CC[C@@]21C | inconclusive [activator, full curve] |
| COc1cccc(OP(=O)(Nc2ccccc2)Oc2cccc(OC)c2)c1 | inconclusive [activator, single point] |
| COc1cccc(C2CCN(CC(=O)Nc3cc(Cl)ccc3OC)CC2O)c1 (centres undefined) | inconclusive [activator, single point] |
| Cc1ccccc1Cn1cnc2c(oc3ccccc32)c1=O | inconclusive [activator, partial curve, poor fit] |
| CC(=O)O[C@H]1C[C@@H]2CC[C@@H]3[C@H](CC[C@@]4(C)[C@H]3C[C@H]([N+]3(C)CCCCC3)[C@@H]4OC(C)=O)[C@@]2(C)C[C@@H]1[N+]1(C)CCCCC1 | inactive |
| C=CCN1CC[C@]23CCCCC2[C@H]1Cc1ccc(O)cc13 (some centres undefined) | inconclusive [activator, single point] |
| C[C@H](CCC(=O)O)[C@H]1CC[C@H]2[C@@H]3C(=O)C[C@@H]4CC(=O)CC[C@]4(C)[C@H]3CC(=O)[C@]12C | inconclusive [activator, full curve, poor fit] |
